Test results as given in the supplement of paper PMC3334620.
The full ranking holds about 33,000 sequences; the median of “E-score (-0.5 to 0.5)” is about -0.012, and the highest 2% start at about 0.29. The list shows a part of the results.

molecular target: T1, Ybr033w (UniProt P38073); assay: PBM E-score (8-mer binding enrichment) (E-score (-0.5 to 0.5)); higher = stronger / more preferred TF binding; most listed sequences are background and not binding sites; details: protein concentration: 200 nM; construct: GST-full length
T1 sequence: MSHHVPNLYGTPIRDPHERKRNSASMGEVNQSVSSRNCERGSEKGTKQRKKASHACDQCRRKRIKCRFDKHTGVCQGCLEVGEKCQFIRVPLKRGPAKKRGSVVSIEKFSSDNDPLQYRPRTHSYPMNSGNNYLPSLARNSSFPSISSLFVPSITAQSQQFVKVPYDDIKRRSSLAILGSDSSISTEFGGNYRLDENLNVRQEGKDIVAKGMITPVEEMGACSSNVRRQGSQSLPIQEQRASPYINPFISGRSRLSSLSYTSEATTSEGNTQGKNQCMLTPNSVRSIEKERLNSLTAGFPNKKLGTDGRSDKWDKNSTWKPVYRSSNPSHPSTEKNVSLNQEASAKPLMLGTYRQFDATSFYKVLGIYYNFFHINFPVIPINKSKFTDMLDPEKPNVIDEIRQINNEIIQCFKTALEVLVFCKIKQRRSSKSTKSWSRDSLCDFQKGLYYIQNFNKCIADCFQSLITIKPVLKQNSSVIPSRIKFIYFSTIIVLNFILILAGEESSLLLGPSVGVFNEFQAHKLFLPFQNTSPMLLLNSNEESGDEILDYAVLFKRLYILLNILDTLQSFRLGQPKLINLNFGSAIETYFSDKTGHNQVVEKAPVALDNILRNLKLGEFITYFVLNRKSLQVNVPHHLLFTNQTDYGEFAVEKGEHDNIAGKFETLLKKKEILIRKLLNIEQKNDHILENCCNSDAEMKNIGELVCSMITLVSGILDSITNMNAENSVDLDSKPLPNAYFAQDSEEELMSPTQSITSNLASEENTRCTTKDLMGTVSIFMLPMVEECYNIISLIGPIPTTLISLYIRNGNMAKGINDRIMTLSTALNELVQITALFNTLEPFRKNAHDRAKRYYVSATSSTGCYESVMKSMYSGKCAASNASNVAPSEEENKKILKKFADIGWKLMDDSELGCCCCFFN
Outline: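 The E-score, a modified Wilcoxon-Mann-Whitney statistic, was computed by the Universal PBM Analysis Suite for every ungapped eight-base word pooled with its reverse complement. Scans behind it were normalised with masliner after bound GST-tagged yeast transcription factors were detected with fluorescent anti-GST. The proteins, at about 100-200 nM, had been applied to universal all-10-mer Agilent arrays made double-stranded by primer extension.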

Sequence	PBM E-score
AACGACCA	0.0134
AATACTGA	0.106
AATGGCAT	0.207
ATGCTTCA	0.0658
GGAGGACA	-0.138
GGGACTAA	-0.0838
AAAGGTGC	-0.0591
AGCTGCTC	-0.124
ATCGTACC	-0.104
AAGTCCAA	0.125
CAGCTTAC	0.0422
GGTAGGCA	-0.228
AATTTCCA	0.282
CACGCAAA	0.073
AGGTAGAA	0.0484
AAAAGGGC	-0.00447
CGAGTTGA	0.0834
GCGCATCA	0.0276
GCACGGAA	-0.0633
GCTCCCAC	-0.0972
CAAACTAC	0.122
AGCTGCCA	-0.135
CGTTCCGC	-0.00657
CCAGATCG	-0.0568
CGCAACAG	-0.0758

Sequence	PBM E-score
CCCACTTA	0.0404
ACATAGAA	-0.0174
ATTTTCAA	0.229
CAGCGGAC	-0.128
AAGACAAA	0.143
ATACCTCA	0.229
ATTACAAC	0.129
CTTTGATC	-0.0123
CACTAAAG	0.145
TAAAGGTA	0.0512
CTGGATTC	0.00016
CAGCCCTG	-0.325
ACTTCCTC	0.00724
TCCCGTAA	-0.0379
CGACGCAG	-0.195
GCTGAAGA	0.0474
AACTGCAC	0.223
AACAGCTG	0.104
AGAGAAAG	0.0568
CAATCCGG	0.0149
ATTGCTCA	0.148
CAGCTACC	-0.0776
AGATTGTG	0.0549
ATTTGCTC	0.124
TCTCGACA	0.0966

Sequence	PBM E-score
CACCTAAC	-0.0488
CTGGTTTA	0.0565
GCTTTCGA	-0.0195
AGTACACA	0.157
CCACTTCG	-0.0158
CAACTGTA	0.0201
CCCGAGGA	-0.0344
ATGTCAGG	-0.189
ATTGTTTC	0.199
CTTTGATA	0.196
AGGAGGAG	-0.213
CGGTGTTC	-0.0747
AAAGCCCC	-0.244
CTTGTCTC	-0.172
CAAGATTA	0.185
CTCTGTGC	-0.186
CAAAAGAA	0.252
CCATGCTC	-0.286
CAAAGCAG	0.0445
AGGGGCGC	-0.279
AAACTTTC	0.0756
AAGGAGCC	-0.0981
ACTTATAT	0.328
ATCTTTAA	0.299
ACAGGCGT	-0.24

Sequence	PBM E-score
CGCTTGAA	0.133
ATACATGG	0.143
CAATCCCA	-0.15
ACGTGAGG	-0.105
ATTAATGA	0.354
ATCAGAGG	-0.123
AAACAATC	0.234
AAGTCGGC	-0.18
AATTTACG	0.232
ACCAGTCG	0.0889
ATCGTGTC	-0.0353
CAGAGAAA	0.142
GCTCACAC	-0.12
GGTACGAA	0.0855
AGGCGAAT	-0.0337
ATGCTGGG	-0.179
GAGATGCA	-0.00763
ATCTTGGA	0.103
ACTCTAGA	0.0991
CATGCCCA	-0.207
ACGAAAGG	-0.00916
CCCTAATC	-0.211
ACACTCAT	0.114
ACGAAGTC	-0.0462
GCGGCCGC	-0.174

Sequence	PBM E-score
AGCGTGTG	0.0219
CAACGACG	0.116
ATAAACGA	0.227
GCATGGAC	-0.154
CTGAATCA	0.0662
CAGACCGG	-0.163
CGAGACAC	-0.0369
AGGCCAAC	-0.12
GTTGTTTA	0.267
CCGGCACA	-0.251
ATATAAAA	0.242
AGAGGCCG	-0.297
ACGGTTTA	-0.107
ACTTATCT	0.204
ATTGATGC	0.145
CGATCGAG	-0.101
GCATAACA	0.13
CACGAGAA	0.0144
CCATCGGA	-0.191
CTCGTGAA	0.0404
GACCTAGC	-0.16
GCGGTTAA	0.0391
GTGAACGA	-0.047
GCTTTTAC	0.0781
AACGTAAA	0.203

Sequence	PBM E-score
ATAGGTCC	0.0798
ATGATGTG	0.0387
CGTCAGAC	-0.131
AGATTTTC	0.322
CACGGCAG	-0.158
AACGGCGC	-0.133
CGTCCGAA	0.0162
GTCTTTTA	-0.257
ACGCGTCT	-0.12
GACGTCAA	-0.013
AGCCCCTG	-0.393
ATAGAAGG	-0.176
AACCCTAA	0.138
GCAAGTGC	-0.086
CTGCGCTC	-0.231
AGTGCCCG	-0.17
CTGAATGA	0.103
AAAGCCGT	0.0257
ATCTTTTA	0.236
GCACGGGC	-0.318
CGCATGCG	-0.202
ACGGTCGA	-0.0846
CGTGGACA	-0.063
AACCGTTG	-0.0126
ACAGGGCC	-0.285

Sequence	PBM E-score
CTACAGCC	-0.202
CTAGGAAC	0.0556
AAAACTGC	0.0906
CTCCTTGC	-0.13
GGCCGAAA	0.0513
AACGAAGA	0.0681
AAACGGTC	0.00782
CCTATGGC	-0.173
AGAATGGG	-0.121
GCCGCGCA	-0.0876
ACTCAGGA	0.0245
AAAACGTG	0.0251
GCGGTAAC	0.0151
AAGATCGG	-0.184
AGGATCTA	-0.163
ATTACGGA	0.156
GGAAAAGA	0.0452
GGCCGCAC	-0.213
AATCCCGT	0.141
TCGTAACA	0.149
GATGTAAA	0.137
GATCCGAA	0.132
AGAGGTAA	0.0981
TATGATCA	0.0776
AGGGAAAC	-0.243

Sequence	PBM E-score
ATGGAACA	0.182
CACTAAAA	0.221
CGTTAAAC	0.166
CCCTTAGC	-0.222
CCTACAGG	-0.155
CCAGCCCG	-0.156
TCTTTCCA	-0.0221
AAAGGTAA	0.0929
ATAACAAG	0.191
CGATGGAC	-0.0622
AATTCAAC	0.184
ACTATCCG	0.16
GACTACGC	-0.113
CTCCGGAA	0.22
ATATTTGG	0.169
CTCACTGA	-0.00144
GGGCAGAC	-0.241
CACCGGCC	-0.372
GGCAGTGA	-0.141
GCGTACGC	-0.188
ACTTTCGA	0.0977
AAAAGTTA	0.288
AATCGGCA	0.0821
CAAAAGAG	0.0769
ATCCACAG	0.0329

Sequence	PBM E-score
ATTATGAG	0.0699
AACGAGGC	-0.195
AAAGTTGT	0.302
AGTAGGGG	0.0688
AGTCTTCA	-0.0281
GAGCAACC	0.00662
GGCTGTGA	-0.201
CGAACGGC	-0.0994
ATTGAATA	0.305
ATTAGACG	0.0658
ATAGACAT	0.0519
CTTCGGCC	-0.24
GCATGACA	0.0303
GGAGACCC	-0.232
GATTGCCA	-0.00966
CTGCGTTA	0.00928
AACCAAAT	0.228
ATTTACTC	0.272
TAAACCAA	0.252
AGCGTAAT	0.0639
CGGCTGCC	-0.147
GATTTAGC	0.105
TCCAGTCA	-0.152
ACGGGCCG	-0.31
AGGATGTG	0.0486

Sequence	PBM E-score
CGGTATCA	0.0534
CCAACGGG	-0.227
AGAACATG	0.0118
GACGTCCC	-0.266
AGGTCGGA	0.0666
CATGTATC	0.0786
TGCTTAAA	0.274
GCCCTTCA	-0.118
AGCCGCGC	-0.158
CCATGACC	-0.148
AGAGCGTG	-0.237
CTTATCTA	0.247
ATGCGAAA	0.165
AGTGGGAC	-0.209
ATAAGTAG	0.097
ACACAGGT	-0.0343
CACAAGGG	-0.253
AGGTGGCC	-0.277
AATGAAGA	0.202
AGATGCCA	-0.0032
GGCCCGCA	-0.239
CCTTCCAG	-0.294
AATTACGA	0.277
CCTTGACG	-0.139
GAGTCTTA	-0.0704

Sequence	PBM E-score
GGTCTCCA	-0.0292
AGCTACCT	0.0619
TCTGGGAA	-0.0142
ACTCGTCG	-0.126
TATTTTCA	0.224
ATTGCGAG	0.0737
AATCGACA	0.204
ATGTCATA	0.194
GCCACCAA	-0.033
CACACCAA	0.0962
TCGTCGAA	0.145
AGCTTTTG	0.0346
CTGCTCCA	-0.0917
GTTCTAGA	0.113
AGTACAAC	-0.0666
CACTAGGG	-0.133
GGACACAC	-0.242
CGAGCGCG	-0.049
ACTCAGGG	-0.17
CCTAGTTC	0.0249
AAGTATAG	0.12
CAATGCGG	-0.0396
AAGAGCAA	-0.212
ACATCGGT	-0.149
GTGCGCAC	0.0505

Sequence	PBM E-score
CGCTAAAA	-0.00547
CCCATAGA	-0.207
ACCGCCAG	-0.143
AAGTGACG	0.0266
GAAAGTAA	0.104
GTTCTATA	0.0383
AGATCAGG	-0.108
CTTGACCC	-0.263
AGCGTCAC	-0.126
CTTCATGC	-0.104
AATGACAT	0.11
CATTGAAC	0.124
ACCTCAAG	-0.0671
TAAAGTAA	0.154
TATGCACA	0.139
CGCATATA	-0.0552
CCCCCCTA	-0.285
GGCGCGTA	-0.211
GATATTCC	0.417
TCCTAGGA	0.0318
ACTTTACC	0.261
TGGGATAA	0.123
GAGTCGAA	0.173
ATGATTCC	0.336
AGTCAAAA	0.098

Sequence	PBM E-score
CTTCAGGA	0.177
ACACTTCA	0.135
CCAGCATA	-0.0558
ATCGGTCC	-0.247
CCTGATAG	-0.156
GTCTCGGA	-0.0865
AGGCTTGC	-0.0927
AGAGCTCG	-0.192
ACTGCAGA	-0.049
GGGTCCAC	-0.303
AACTCGGC	0.0677
CTAGTTAA	0.15
CTGCGGAC	-0.164
ACCACAGC	-0.0174
CTGGAAAA	0.377
TACTAAGA	0.104
CGAGTCCG	-0.11
AAGACTGG	0.0624
CGACAGAG	-0.0289
TGGAGCCA	-0.169
CAGGGGTC	-0.266
CCTCGTCG	-0.059
AGATAGGC	-0.113
AGCACGGG	-0.171
CAATAGAG	-0.0533

Sequence	PBM E-score
ACGTGCCG	-0.222
CATACCTA	0.0448
AGAAGGTC	0.0252
GGAGCAGA	-0.231
AGAAGTAT	0.184
CGCGTAGA	-0.0474
ACCGAAGG	-0.101
GCCGAGGA	0.148
GAGGTGGA	-0.223
TCGTGACA	-0.171
CCCCCGGG	-0.364
CCTTATAG	0.153
ACCCTTCA	-0.0354
CCATATCG	0.0253
ACTAAGCC	0.112
TAGATTGA	0.233
GAAACAGA	0.18
TACCCACA	-0.122
TCTCCCCA	-0.207
